Assay results taken from the BET-seq Pho4 binding data (Le et al. 2018).
The list shows a part of the results. Values were computed here from the reads of four pooled replicates and scatter widely.

target: T1, Pho4 (S. cerevisiae) (UniProt P07270); test: relative binding free energy (BET-seq); higher = weaker binding; settings: reference: library average
T1 sequence: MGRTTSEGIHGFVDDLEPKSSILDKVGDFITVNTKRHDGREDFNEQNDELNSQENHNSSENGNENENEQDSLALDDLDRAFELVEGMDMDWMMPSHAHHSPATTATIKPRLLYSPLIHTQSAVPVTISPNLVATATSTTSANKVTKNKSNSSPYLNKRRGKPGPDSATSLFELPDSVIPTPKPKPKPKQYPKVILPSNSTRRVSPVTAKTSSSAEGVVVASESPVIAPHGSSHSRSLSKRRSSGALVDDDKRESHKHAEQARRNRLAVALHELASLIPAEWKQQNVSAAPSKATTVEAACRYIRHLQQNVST

Row | Sequence | relative binding free energy [kcal/mol]
1 | TATTACACGTGAGAGT | 0.32
2 | GTTGGCACGTGTCATG | -0.12
3 | TGTTGCACGTGGAGAT | -0.07
4 | TGTTGCACGTGGGAAA | -0.02
5 | TAGCGCACGTGTGTGG | -0.19
6 | TTAATCACGTGAGGTG | 0.35
7 | TTGACCACGTGTGTTA | -0.05
8 | TTTATCACGTGTGTCT | 0.07
9 | AGGTTCACGTGGTGAG | 0.31
10 | TTGGCCACGTGGTTTT | 0.02
11 | TGAGGCACGTGGGGCT | -0.2
12 | TTTTTCACGTGCCGAT | 0.22
13 | TTTCTCACGTGGGGCA | 0.15
14 | CGTGTCACGTGTAGAA | 0.05
15 | TTATACACGTGCATGG | 0.02
16 | TGTTGCACGTGCATAT | -0.17
17 | TGGTGCACGTGTGCTG | 0.02
18 | ATTTGCACGTGATTCA | 0.09
19 | CACGTCACGTGTATGG | 0.28
20 | ATTAGCACGTGATATT | 0.04
21 | GTAGTCACGTGTGGTG | 0.27
22 | CTGTGCACGTGCTTGG | -0.14
23 | AATTTCACGTGAGGAG | 0.35

Row | Sequence | relative binding free energy [kcal/mol]
24 | GTCAGCACGTGTGGAG | -0.05
25 | GCTTGCACGTGAGGAT | 0.24
26 | AATGGCACGTGCTGTT | -0.19
27 | GGGCGCACGTGTGCAT | 0.01
28 | GTGTACACGTGTTGCA | 0.03
29 | TGCAGCACGTGTTGTT | -0.12
30 | TCTCTCACGTGGTTGG | 0.13
31 | GGATACACGTGTAGTG | 0.05
32 | TTTGGCACGTGATTAT | 0.04
33 | AAGTACACGTGGATGT | 0.15
34 | CATTTCACGTGGGTGG | 0.21
35 | ACAGACACGTGATGGG | 0.29
36 | GAGGGCACGTGGTCAA | -0.08
37 | ATTGTCACGTGGCGTA | -0.09
38 | GTAGTCACGTGGATCG | 0.17
39 | ATAATCACGTGGGAGA | 0.06
40 | TGCGTCACGTGATTAT | 0.15
41 | TGGGACACGTGAATGC | 0.32
42 | AGTAACACGTGCGGTA | -0.12
43 | TCATGCACGTGATTAT | 0.19
44 | TAAATCACGTGATTTA | 0.17
45 | GGTGACACGTGGGGTA | -0.15
46 | GGGGGCACGTGAGTCT | 0.13

Row | Sequence | relative binding free energy [kcal/mol]
47 | GTACGCACGTGAGTGA | 0.26
48 | TGATACACGTGTGGTG | 0
49 | GCTTTCACGTGTTTGG | 0.34
50 | GGTGACACGTGTAAGG | 0.04
51 | GCCGGCACGTGAGGGG | -0.08
52 | TGGATCACGTGTTGAT | 0.22
53 | GTATGCACGTGTATGT | 0.08
54 | CTGTACACGTGAATGG | 0.31
55 | GGAAGCACGTGTTAGT | -0.08
56 | CGGCGCACGTGGTGGG | -0.16
57 | TGGATCACGTGTTAGG | 0.02
58 | TCAGGCACGTGGGAGA | -0.22
59 | TGGCGCACGTGAGAGC | 0.3
60 | GGAGGCACGTGTCGGA | -0.04
61 | TTTTCCACGTGTTAAT | 0.12
62 | ATTCACACGTGTTTGG | 0.17
63 | GCGGTCACGTGGAGAG | 0.07
64 | GCCGGCACGTGTAGGT | 0.04
65 | AGTTACACGTGTTCAA | 0.1
66 | GTTATCACGTGTTCAT | 0.04
67 | TAGTTCACGTGCATTT | 0.21
68 | TAATGCACGTGACGGT | 0.15
69 | GTGAACACGTGTGCAT | 0.1

Row | Sequence | relative binding free energy [kcal/mol]
70 | TGGACCACGTGTTGAT | -0.02
71 | CTTCACACGTGGGTGT | -0.06
72 | CTAGTCACGTGGAGGG | -0.1
73 | AGTGACACGTGGACTG | 0.1
74 | AGACACACGTGGGTGG | -0.12
75 | GGTTACACGTGAGTTA | 0.18
76 | TTCTCCACGTGTTTGG | 0.03
77 | GGAGGCACGTGTCTTG | -0.18
78 | CGTTTCACGTGACTTG | 0.41
79 | GGCGGCACGTGGCGGA | -0.1
80 | GTTTTCACGTGGCGCG | 0.31
81 | AATTACACGTGCTTGG | 0.14
82 | TGGGACACGTGCTTTG | 0.11
83 | TGTGGCACGTGCGGAG | -0.03
84 | TTTAGCACGTGGCTAG | -0.18
85 | TATAGCACGTGGTAAG | -0.03
86 | GGAGACACGTGGCGGT | -0.08
87 | TGGCTCACGTGGATGT | 0.2
88 | ATGTTCACGTGAAGAT | 0.21
89 | ATATGCACGTGATGTG | 0.12
90 | AGGTACACGTGATCGT | 0.16
91 | TTAGCCACGTGTGGTG | -0.14
92 | TGGCGCACGTGGAAGT | -0.07

Row | Sequence | relative binding free energy [kcal/mol]
93 | TTTCGCACGTGGGCCT | 0.05
94 | GAGAGCACGTGTTTGT | -0.17
95 | ATGAGCACGTGGAGTG | -0.17
96 | ACTGGCACGTGTGTGT | -0.15
97 | ATATTCACGTGTGGAA | 0.33
98 | CATGGCACGTGTGTTG | -0.06
99 | GTTGGCACGTGGTTTA | -0.09
100 | CTAGGCACGTGGGGAG | -0.14
101 | GTGTACACGTGACAGG | 0.16
102 | GTGAGCACGTGCGGTA | -0.09
103 | AAGGCCACGTGTATTT | 0.05
104 | AGTATCACGTGATGAA | 0.33
105 | AAATGCACGTGTCAGG | 0.06
106 | TCGGACACGTGTAGGG | -0.01
107 | TGAGGCACGTGTCGGT | -0.01
108 | ATAATCACGTGGGTCG | 0.08
109 | GGTAGCACGTGAGGTG | 0.22
110 | GATTTCACGTGACTGT | 0.43
111 | TTTTGCACGTGACTTA | 0.12
112 | AGTCGCACGTGATGGA | 0.14
113 | GCGTGCACGTGAGGTA | 0.26
114 | CTGGGCACGTGGCTAG | -0.26
115 | AGAGTCACGTGTTGTA | -0.04
